Experimental findings from ChEMBL document CHEMBL1201862, “PubChem BioAssay data set” (2004) are described below.

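Values below derive from 48-hour exposures of cells grown in 96-well plates, with endpoints linearly interpolated between the two concentrations bracketing the appropriate inhibition level. The concentration for 50% growth inhibition is given as GI50.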 Calls of active or inactive are those of the source. Rule as the data show it: active = GI50 up to about 1.1 µM and inactive = higher.

This test concerns NCI-H322M. In words: NCI tumour cell line growth inhibition, 48 h.
With `Fc1ccc2c(c1)SC1Oc3ccccc3-c3c1c-2nn3-c1ccccc1` (configuration not stated), the GI50 is inactive: > 100 µM.
The same measure for `CC(C)c1ccc(O)c(=O)c(O)c1.CC(C)c1ccc(O)c(=O)cc1.CC(C)c1cccc(=O)c(O)c1.CC(C)c1ccccc(=O)c1O`: inactive: 1.97 µM; for `Cc1ccc(S(=O)(=O)N/N=C2\C(=O)Nc3cc(O)c(C(=O)O)cc32)cc1`: inactive: > 100 µM.
Turning to `Cc1cc(=O)oc2c(OS(C)(=O)=O)c(OS(C)(=O)=O)ccc12`, the GI50 was inactive: > 100 µM.
In the case of `COc1ccc(-c2cn3ccsc3n2)cc1`, the GI50 was inactive: > 100 µM.
With `O=C1CCC(c2ccccc2)(c2ccccc2)CC1`, the GI50 was inactive: 71.1 µM.
With `CC(=O)/C(=N\N=C(N)N)c1ccccc1`, the GI50 was inactive: > 100 µM.
On to `COc1ccc(C[C@H]2COC(=O)[C@@H]2Cc2ccccc2)cc1OC`, for which the GI50 is inactive: > 100 µM.
As for `CCOc1ccc2nc(NC(=O)C(=O)C(C#N)CC(C)(C)C=O)sc2c1` (configuration not stated), the GI50 is inactive: > 100 µM.
As to `[N-]=[N+]=NC1(Cc2ccccc2)C(=O)c2cccc3c2N(CCC3)C1=O` (configuration not stated), the GI50 is inactive: > 100 µM.
The same measure for `C=C1C(=O)OC2/C=C(\C)C(=O)CC3OC(C)(C)OC3(C)CC(OC(=O)/C(C)=C/C)C12` (configuration not stated): inactive: > 74.8 µM.
`Cc1ccc(C(=O)O)cc1NC(=O)c1cc(/C=C/c2ccccc2)[nH]c(=S)n1`: the GI50 is inactive: > 100 µM.
Next, `CCCCCCCCCCCCCCCCCCOCC(CCP(=O)(CP(=O)(O)O)Oc1ccccc1)OCCCCCCCCCCCCCCCCCC` (configuration not stated): inactive: > 100 µM; `Cc1n[nH]c(C(F)(F)F)c1/N=N/N1CCOCC1`: inactive: 15.8 µM; `CC1=CC2CC(C)=C(CC[C@]3(C)CC[C@H]([C@@H](C)C(=O)O)OO3)C(C)(C)C2CC1` (some centres not stated): inactive: 1.55 µM.
As for `CCOC(=O)CCc1cc(=O)oc2cc(O)cc(O)c12`, the GI50 is inactive: > 100 µM.
As to `O=C(/C=C1\Nc2ccccc2C(=O)N1c1ccc(Cl)cc1)c1ccncc1`, the GI50 was inactive: > 100 µM.
On to `CC(=O)O[C@H]1C(=O)[C@@]2(C)[C@H]([C@H](OC(=O)c3ccncc3)[C@]3(O)C[C@H](OC(=O)[C@H](O)[C@@H](NC(=O)c4ccccc4)c4ccccc4)C(C)=C1C3(C)C)[C@]1(OC(C)=O)CO[C@@H]1C[C@@H]2O`, for which the GI50 was inactive: 7.76 µM.
As to `C=C1C(=O)OC2/C=C(\C)CC(O)/C=C(/CO)CC(OC(=O)/C(C)=C/C)C12` (configuration not stated), the GI50 is inactive: 114 µM.
The same measure for `N#C/C(=C/n1c(=S)[nH]c2ccccc21)C(N)=O`: inactive: > 100 µM.
Regarding `O=C(c1ccccc1)C1C(c2ccccc2[N+](=O)[O-])N1C1CCCCC1` (configuration not stated), the GI50 was inactive: 14.9 µM.
For `O=C(Nc1nc(C23CC4CC(CC(C4)C2)C3)cs1)c1c(O)c2ccccc2[nH]c1=O`, the GI50 is inactive: > 100 µM.
In the case of `O=C(O)CSc1cc(-c2ccccc2)nc2ccccc12`, the GI50 is inactive: 43.8 µM.
For `COc1ccccc1NC(=O)C1=C(C)NC(C)=C(C(=O)Nc2ccccc2OC)C1C1=CC=COC1`, the GI50 was inactive: 19.7 µM.
Next, `O=C(CSc1nc2ccc(I)cc2c(=O)n1Cc1ccccc1)NNC(=S)Nc1ccccc1`: inactive: 16.4 µM.
With `O=C(CCCN1CC=C(n2c(=O)[nH]c3ccccc32)CC1)c1cccs1`, the GI50 was inactive: > 100 µM.
Next, `CC(=O)OCC1OC(O[C@@H]2c3c(O)c4c(c(O)c3C3=C(NN(c5ccc([N+](=O)[O-])cc5[N+](=O)[O-])[Se]3=O)[C@@]2(C)O)C(=O)c2ccccc2C4=O)C(OC(C)=O)C(OC(C)=O)C1OC(C)=O` (some centres not stated): active: 0.232 µM; `CCOC(=O)[C@@H]1[C@@H](c2ccccc2)N(C)O[C@@]1(c1ccccc1)C(F)(F)F`: inactive: > 100 µM.
As for `CCCc1[nH]c(SCCCCCCCCSc2nc(-c3ccc(F)cc3)c(CCC)[nH]2)nc1-c1ccc(F)cc1`, the GI50 is inactive: 26.6 µM.
Regarding `Cc1cc(N(CCC#N)CCC#N)ccc1/N=N/c1ccc(Br)cc1`, the GI50 is inactive: > 100 µM.
As for `O=C1Nc2nnc(S)n2NC12c1ccccc1-c1ccccc12`, the GI50 is inactive: 15.1 µM.
On to `CC(C)(C)C(=O)/C=C/c1ccc(Oc2ccccc2)cc1`, for which the GI50 was inactive: 19.2 µM.
Next, `COc1ccc(/C(=N/O)c2ccccc2-c2nc3ccccc3c(=O)n2-c2ccc(S(=O)(=O)Nc3ncccn3)cc2)cc1C`: inactive: 25.6 µM; `COc1cc(C(=O)C2CC3(CCC2(O)c2cc(OC)c(OC)c(OC)c2)CC(=O)Nc2ccccc2C3=O)cc(OC)c1OC` (configuration not stated): inactive: > 100 µM.
For the molecule `O=C1C=CC(=O)C2C1Cc1ccccc1C2c1ccccc1` (configuration not stated), the GI50 was inactive: > 100 µM.
Next, `O=C1CC(NCCCNC2CC(=O)c3c(Br)sc(Br)c32)c2c(Br)sc(Br)c21` (configuration not stated): inactive: 4.14 µM; `CC(C)(C)OC(=O)c1ccc(NCC2=CC(=O)C=CC2=O)cc1`: inactive: 22.9 µM; `CCOP(=O)(OCC)/C(C#N)=C\c1ccsc1`: inactive: > 100 µM.
As to `CN(NC(=O)c1ccco1)C1=NCCCCN1`, the GI50 is inactive: > 100 µM.
Consider `c1ccc2c(c1)cc1c3[nH]c4ccccc4c3ccn21`, for which the GI50 was inactive: > 10 µM.
As for `CN(C)CC/C(=N\Nc1ccccc1)c1ccccc1`, the GI50 was inactive: 26.5 µM.
As for `CCOc1ccc(N2C(=O)NC3(c4ccccc4)N(C)C(=O)N(C)C23c2ccccc2)cc1` (configuration not stated), the GI50 was inactive: > 100 µM.
With `COc1cccc(C(=O)Oc2ccc(OS(=O)(=O)c3ccc(C)cc3)cc2)c1C#N`, the GI50 was inactive: 96.6 µM.
Regarding `O=[N+]([O-])c1ccc(C2=Nc3ccccc3[S+]([O-])C(c3ccccc3)C2)cc1` (configuration not stated), the GI50 is inactive: 29.6 µM.
For the molecule `[O-][n+]1c(-c2ccccc2)c2nc3ccccc3nc2c2ccccc21`, the GI50 was inactive: > 100 µM.
Turning to `COc1cccc(NC(=O)C(=O)C2C=CCS2(=O)=O)c1` (configuration not stated), the GI50 is inactive: > 100 µM.
As for `CCCCCCCCCc1cc(=O)c2ccc(O)cc2o1`, the GI50 is inactive: > 100 µM.
Consider `Cc1n[nH]c(=O)n1C1CCCC1`, for which the GI50 was inactive: > 100 µM.
Regarding `Cn1c(=O)c2[nH]c(N/N=C3/SCC(=O)N3Cc3ccccc3)nc2n(C)c1=O`, the GI50 was inactive: 91.8 µM.
On to `CC[C@@H](/C=C\CCC1(C[C@H](O)CCC=C(C)C)OCCO1)O[Si](C(C)C)(C(C)C)C(C)C`, for which the GI50 is inactive: 38.2 µM.
For the molecule `O=C(CC1C(=O)Nc2ccccc2[S+]1[O-])Nc1ccc(Cl)cc1` (configuration not stated), the GI50 was inactive: > 100 µM.
Take `CCOC(=O)CNc1c(OCc2ccccc2)c(=O)c1=O`: the GI50 is inactive: > 100 µM.
As for `N=C(N)c1ccc(/N=N/c2c(O)ccc3cc(O)ccc23)cc1`, the GI50 was inactive: > 100 µM.
Next, `COc1ccc(/[N+]([O-])=C/c2ccccc2OC(=S)S)cc1`: inactive: > 100 µM; `Nc1c(C(=O)Nc2ccc(C3=NCCN3)cc2)cccc1C(=O)Nc1ccc(C2=NCCN2)cc1`: inactive: > 100 µM; `COc1ccc(OC)c(CC2CCc3nc(N)nc(N)c3C2)c1` (configuration not stated): inactive: 3.13 µM.
Regarding `COc1ccc(C2Cc3cc(OC)c(OC)c(OC)c3C2=O)cc1` (configuration not stated), the GI50 is inactive: 94.4 µM.
